From PubChem BioAssay AID1347165 (National Center for Advancing Translational Sciences (NCATS), 2019)
Out of some 220,000 compounds screened, about 5,700 (2.6%) were called active. Inconclusive means that the source gave no clear call. Such entries were picked first, then a sample of the others. The call rests on the fitted dose curve; in most records, active means well fitted inhibition curve with a large enough effect; inconclusive means small, poorly fitted or top-dose-only effect; inactive means no such curve, though single readings can be large or run the other way. Potencies beside an inconclusive call are fits to weak or partial responses and may not hold up.

Target: Lysine-specific demethylase 5B (Homo sapiens) (UniProt Q9UGL1)
Assay: Primary screen for KDM5B Histone Demethylases FDH-coupled qHTS; further: nearly all actives have a fitted effect of over 70% in size; on activity change, negative = inhibition: 0% is about no effect
Settings: FDH-coupled NADH fluorescence (FDH is formaldehyde dehydrogenase); activity change, negative = inhibition: at 57.7 µM (top of the series) unless noted
Method in brief: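 Compound dilutions met 200 nM (final) KDM5BΔAP for 10 min at room temperature before substrate addition. The substrate mix held 12.5 µM H3K4me3 with cofactors 25 µM α-ketoglutarate and 50 µM Fe²⁺. NADH signal gain over 30 min defined activity.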
Potency means the concentration at half of the fitted maximal effect; tags describe the fitted curve by direction and shape.

UniProt Q9UGL1, sequence (Q9UGL1 whole entry, looked up): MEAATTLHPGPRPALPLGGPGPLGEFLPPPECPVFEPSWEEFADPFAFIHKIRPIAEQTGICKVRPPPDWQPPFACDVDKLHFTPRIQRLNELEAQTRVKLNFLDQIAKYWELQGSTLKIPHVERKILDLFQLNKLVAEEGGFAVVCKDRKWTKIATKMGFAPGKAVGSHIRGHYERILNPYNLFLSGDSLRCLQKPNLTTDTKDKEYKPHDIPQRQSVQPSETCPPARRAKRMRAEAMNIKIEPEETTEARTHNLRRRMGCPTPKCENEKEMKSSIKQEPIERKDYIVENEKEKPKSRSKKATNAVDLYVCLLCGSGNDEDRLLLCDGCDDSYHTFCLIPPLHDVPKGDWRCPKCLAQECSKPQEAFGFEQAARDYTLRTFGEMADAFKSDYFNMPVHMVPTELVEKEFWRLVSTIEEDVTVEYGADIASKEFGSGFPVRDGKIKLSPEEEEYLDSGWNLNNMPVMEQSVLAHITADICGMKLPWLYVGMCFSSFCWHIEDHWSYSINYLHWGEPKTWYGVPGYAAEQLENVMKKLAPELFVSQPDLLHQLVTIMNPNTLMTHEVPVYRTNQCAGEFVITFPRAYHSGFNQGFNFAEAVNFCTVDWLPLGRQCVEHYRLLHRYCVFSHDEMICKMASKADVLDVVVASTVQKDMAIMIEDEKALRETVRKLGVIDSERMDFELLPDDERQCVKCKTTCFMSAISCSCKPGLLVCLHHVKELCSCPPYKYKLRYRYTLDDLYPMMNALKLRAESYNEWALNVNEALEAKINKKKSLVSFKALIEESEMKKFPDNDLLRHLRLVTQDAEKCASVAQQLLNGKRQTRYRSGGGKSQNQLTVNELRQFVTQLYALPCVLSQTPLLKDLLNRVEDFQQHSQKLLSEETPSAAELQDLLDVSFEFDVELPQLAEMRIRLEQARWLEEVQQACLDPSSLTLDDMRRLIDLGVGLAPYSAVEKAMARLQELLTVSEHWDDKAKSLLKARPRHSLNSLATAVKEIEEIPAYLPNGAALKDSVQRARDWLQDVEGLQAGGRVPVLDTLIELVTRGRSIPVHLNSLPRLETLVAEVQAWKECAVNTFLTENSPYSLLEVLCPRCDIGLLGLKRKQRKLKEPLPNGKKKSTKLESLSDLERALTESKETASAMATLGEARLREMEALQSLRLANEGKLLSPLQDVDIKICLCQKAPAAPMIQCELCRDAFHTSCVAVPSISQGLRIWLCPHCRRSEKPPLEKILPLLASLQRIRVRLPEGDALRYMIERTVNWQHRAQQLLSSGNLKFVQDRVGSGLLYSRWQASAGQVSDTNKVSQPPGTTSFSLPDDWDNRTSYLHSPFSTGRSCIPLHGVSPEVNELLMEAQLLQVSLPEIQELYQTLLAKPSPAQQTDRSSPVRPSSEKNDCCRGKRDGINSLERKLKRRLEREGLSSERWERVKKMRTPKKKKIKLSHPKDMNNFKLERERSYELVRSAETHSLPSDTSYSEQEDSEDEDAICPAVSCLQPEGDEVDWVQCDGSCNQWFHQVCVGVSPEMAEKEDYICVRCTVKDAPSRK

Row | SMILES | Potency | activity change, negative = inhibition
1 | COc1cccc(C(=O)N2CCC(Oc3ccccc3-c3nc(C4CCOCC4)no3)C2)c1 (configuration not stated) | inconclusive: 17.8 µM [inhibitor, partial curve, poor fit] | 
2 | COc1ccc2c(Sc3ccc(Cl)cc3)c(C(=O)NCCCN3CCCCC3)[nH]c2c1 | inconclusive: 35.5 µM [inhibitor, single point] | 
3 | CCN(CC)S(=O)(=O)c1ccc(C)c(NS(=O)(=O)c2cccc(C(C)=O)c2)c1 |  | inactive: -4.99%
4 | CCCCCOc1ccccc1C(=O)NCCCCCC(=O)O |  | inactive: 7.33%
5 | Cc1cccc(NC(=O)CSc2nc3c([nH]c4ccccc43)c(=O)n2C)c1 | inconclusive: 1.26 µM [inhibitor, full curve, poor fit] | 
6 | O=C1CC[C@]2(C(=O)NCc3ccccn3)CCCC[C@H]2N1CCc1ccccc1 | inconclusive: 15.8 µM [inhibitor, partial curve] | 
7 | Cc1ccc(CN(C(=O)COc2ccc(C)c(C)c2)C2CCS(=O)(=O)C2)o1 (configuration not stated) | inconclusive: 12.6 µM [inhibitor, partial curve, poor fit] | 
8 | CCc1ccc(-c2nn(Cc3ccccc3)cc2C(=O)N2CCN(CCO)CC2)cc1 |  | inactive: 7.6%
9 | Cc1ccc(Nc2c(-c3ccccc3O)nc3ccc(Br)cn23)cc1 | inconclusive: 20 µM [inhibitor, partial curve, poor fit] | 
10 | CN1C(C(=O)Nc2ccc(F)cc2F)=CC(c2cccs2)=NS1(=O)=O | inconclusive: 31.6 µM [inhibitor, single point] | 
11 | Cc1ccc2c(=O)cc(C(=O)Nc3nnc(C)s3)oc2c1 | inconclusive: 28.2 µM [inhibitor, single point] | 
12 | CCOC(=O)c1ccccc1NC(=O)CCc1c(C)nc2ncnn2c1C | inconclusive: 1.41 µM [inhibitor, full curve, poor fit] | 
13 | Cc1nc2cc(NS(=O)(=O)c3c(C)c(C)cc(C)c3C)ccc2o1 |  | inactive: 6.31%
14 | CN(c1ccccc1)S(=O)(=O)c1ccc(NC(=O)COc2ccccc2)cc1 |  | inactive: 18.6%
15 | CCOc1ccc(C2C(C(=O)Nc3ccc(F)cc3)=C(C)NC3=C2C(=O)CC(C)(C)C3)cc1 (configuration not stated) | inconclusive: 20 µM [inhibitor, partial curve, poor fit] | 
16 | CNC(=O)c1ccc(C2Nc3cc(C(F)(F)F)ccc3S(=O)(=O)N2)cc1 (configuration not stated) | inconclusive: 22.4 µM [inhibitor, partial curve, poor fit] | 
17 | Cc1ccc(CC(=O)Nc2c(C(=O)N3CCN(c4ccccc4F)CC3)oc3ccccc23)cc1 | inconclusive: 35.5 µM [inhibitor, single point] | 
18 | CC(C)NC(=O)N1CCCCCC1CN1CCCC1 (configuration not stated) | inconclusive: 28.2 µM [inhibitor, single point] | 
19 | Cn1c(COc2ccc3c(c2)CCCC3)nnc1SCC(=O)N1CCN(c2ccccc2)CC1 | inconclusive: 39.8 µM [inhibitor, single point] | 
20 | COC[C@H]1CCCN1C(=O)C[C@@H]1O[C@H](CNC(=O)NC(C)C)[C@@H](O)[C@H]1O | inconclusive: 39.8 µM [inhibitor, partial curve, poor fit] | 
21 | Cc1cc(F)ccc1NC(=O)c1sc2nc(-c3cccs3)ccc2c1N | inconclusive: 2.82 µM [inhibitor, full curve, poor fit] | 

Row | SMILES | Potency | activity change, negative = inhibition
22 | O=C(NCC1CCN(c2cc(-c3ccccc3)[nH]n2)CC1)c1ccc[nH]1 | inconclusive: 17.8 µM [inhibitor, partial curve] | 
23 | CCOC(=O)N1CCN(C(=O)c2cc3c(=O)n4ccccc4nc3s2)CC1 | inconclusive: 39.8 µM [inhibitor, single point] | 
24 | COc1ccccc1-c1ccc2ncc(Nc3ccc(CN4CCN(C)CC4)cc3)n2n1 |  | inactive: -31.8% [at 86.2 µM]
25 | CC(O)c1ccc(OCCN(C)c2ccccn2)cc1 (configuration not stated) | inconclusive: 31.6 µM [inhibitor, partial curve, poor fit] | 
26 | c1cncc(CNc2cc(-c3cnc4ccccc4n3)c3cc[nH]c3n2)c1 |  | inactive: -21.9%
27 | CCC1CCC(C(=O)Nc2ccc(Br)cc2)CC1 (configuration not stated) |  | inactive: 4.55%
28 | Cc1cccc(NC(=O)c2oc3ccccc3c2NC(=O)c2nn(-c3cccc(C)c3)ccc2=O)c1 |  | inactive: 9.57%
29 | COc1cc(Cl)c(C)cc1NC(=O)CN1c2ccccc2S(=O)(=O)c2ccccc21 | inconclusive: 35.5 µM [inhibitor, single point] | 
30 | Cc1cc(N2CCC(C)CC2)nc2ccc(NC(=O)CCC(=O)N3CCN(c4cccc(C(F)(F)F)c4)CC3)cc12 | inconclusive: 35.5 µM [inhibitor, partial curve, poor fit] | 
31 | CCc1ccccc1Nc1nn2c(=O)c3ccc(C(=O)Nc4cc(C)cc(C)c4)cc3nc2s1 | inconclusive: 2.82 µM [inhibitor, full curve, poor fit] | 
32 | CO[C@@H]1COCC[C@H]1NC1CCN(c2ncc3ccc(F)cc3n2)CC1 | active: 28.2 µM | 
33 | CCOC(=O)c1c(NC(=O)C2CCCO2)sc(C(C)=O)c1C (configuration not stated) |  | inactive: 15.4%
34 | CC(C)(C)CNc1ccc(C(=O)N2CCC(CN3CCCC3=O)CC2)cn1 | active: 14.1 µM | 
35 | COc1ccccc1-c1nn(CCC(=O)Nc2cccc(C(C)=O)c2)c2nc(C)cc(C)c12 | inconclusive: 25.1 µM [inhibitor, single point] | 
36 | CCc1ccc(-c2noc(CN3CCc4cc(OC)c(OC)cc4C3)n2)cc1 | inconclusive: 39.8 µM [inhibitor, single point] | 
37 | Cc1ccc(NC(=O)c2sc3nc(C)nc(N4CCN(c5ccccn5)CC4)c3c2C)c(C)c1 | inconclusive: 35.5 µM [inhibitor, single point] | 
38 | CCOc1ccccc1/C=N/O |  | inactive: -27.8%
39 | Cc1oc(-c2ccc(C(=O)NCc3cccnc3)cc2)nc1CS(=O)(=O)c1ccccc1 | inconclusive: 25.1 µM [inhibitor, partial curve, poor fit] | 
40 | Cn1c(=O)c2c(ncn2CC(=O)Nc2ccc3c(c2)OC2(CCCC2)O3)n(C)c1=O |  | inactive: -17%
41 | C[C@@H](NC(=O)c1ccc(Cl)cc1)c1onc(-c2ccc(F)cc2)c1C(=O)O |  | inactive: 10.8% [at 86.2 µM]
42 | Cc1cnc(C2CC2)n1C1CCCN(C(=O)c2ccco2)C1 (configuration not stated) |  | inactive: 12.5%
